Article PMC4336329 (PLoS ONE, 2015)
Out of some 310,000 compounds screened, about 14,000 (4.5%) showed an effect of 50% or more. The effect is printed as a negative number. This is one part of the list.

What follows are compounds tested against human ether-à-go-go-related gene (hERG) potassium channel (human, UniProt Q12809) (assay: primary screen, population patch clamp on CHO cells stably expressing hERG).
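Note: peak tail current of the secondary pulse compared with the same well before compound.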

Chain of human ether-à-go-go-related gene (hERG) potassium channel (Q12809 whole entry, looked up): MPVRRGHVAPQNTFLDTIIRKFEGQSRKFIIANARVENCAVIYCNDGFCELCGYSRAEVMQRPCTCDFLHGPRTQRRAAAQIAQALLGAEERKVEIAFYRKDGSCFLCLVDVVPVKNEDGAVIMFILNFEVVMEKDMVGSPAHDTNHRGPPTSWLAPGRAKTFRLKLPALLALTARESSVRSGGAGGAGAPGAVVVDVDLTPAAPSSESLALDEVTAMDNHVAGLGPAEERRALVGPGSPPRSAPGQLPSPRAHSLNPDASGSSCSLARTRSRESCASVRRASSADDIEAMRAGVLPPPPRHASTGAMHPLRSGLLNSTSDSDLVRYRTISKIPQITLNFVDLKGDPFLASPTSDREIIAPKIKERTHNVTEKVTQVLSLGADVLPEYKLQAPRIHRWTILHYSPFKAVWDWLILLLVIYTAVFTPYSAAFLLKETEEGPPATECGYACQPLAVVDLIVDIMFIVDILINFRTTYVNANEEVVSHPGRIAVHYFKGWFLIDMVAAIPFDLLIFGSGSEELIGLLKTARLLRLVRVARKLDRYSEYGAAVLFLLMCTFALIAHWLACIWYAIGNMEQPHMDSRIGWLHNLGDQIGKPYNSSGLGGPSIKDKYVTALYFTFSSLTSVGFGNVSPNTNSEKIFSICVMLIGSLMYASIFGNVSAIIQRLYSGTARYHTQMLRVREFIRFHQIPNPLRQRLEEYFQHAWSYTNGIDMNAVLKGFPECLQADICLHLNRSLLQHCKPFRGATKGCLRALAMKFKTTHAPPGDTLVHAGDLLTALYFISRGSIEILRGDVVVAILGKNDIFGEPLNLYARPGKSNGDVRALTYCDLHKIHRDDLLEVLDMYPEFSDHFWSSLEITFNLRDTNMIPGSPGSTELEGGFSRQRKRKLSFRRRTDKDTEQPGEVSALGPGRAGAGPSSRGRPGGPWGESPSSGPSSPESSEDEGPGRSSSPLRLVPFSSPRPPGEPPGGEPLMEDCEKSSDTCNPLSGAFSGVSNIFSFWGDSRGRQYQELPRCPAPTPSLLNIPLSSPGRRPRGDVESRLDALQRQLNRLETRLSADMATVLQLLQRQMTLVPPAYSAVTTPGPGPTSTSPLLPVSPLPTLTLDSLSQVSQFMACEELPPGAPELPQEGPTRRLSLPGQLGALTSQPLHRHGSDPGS

Row | SMILES | hERG current change (%, negative = inhibition) at 10uM [%]
1 | Cc1cc(C)c(C)c(S(=O)(=O)NCCCN2CCCC2=O)c1C | -9.79
2 | CC(=O)O[C@@H]1[C@@]2(C)O[C@H]2CC[C@]23O[C@H]2[C@H](OC3=O)C2=C(C)C(=O)O[C@@]21O | 10.1
3 | Cc1cc(C)n(CCN(C)C(=O)CCc2nnc(-c3ccc4c(c3)OCO4)o2)n1 | -51.7
4 | CCOc1cc(-c2nc(-c3ccccc3OC)no2)cc(OCC)c1OCC | 4.01
5 | O=C(O)Cn1cc(C(=O)c2ccccc2)c2ccccc21 | -0.546
6 | COc1ccc(Cc2noc(CN3CCN(Cc4cccc(Cl)c4)CC3)n2)cc1OC | -11.5
7 | NC(=O)c1nsc(C(=O)N(CC(=O)NC2CCCC2)c2cccc(C(F)(F)F)c2)c1N | -14.3
8 | COc1cc(NC2c3ccccc3C(=O)N2Cc2ccc3c(c2)OCO3)cc(OC)c1OC (stereo not drawn) | 6.14
9 | O=c1oc(CCO)cc2ccc(-c3ccc4[nH]ccc4c3)cc12 | 14.5
10 | Cc1cc(C)c(C#N)c(SCC(O)CS(=O)(=O)Cc2ccccc2)n1 (stereo not drawn) | 1.14
11 | C=CCNC(=O)COC(=O)c1oc2ccccc2c1CSC1CCCCC1 | -8.69
12 | COCCOC(=O)c1c(C)n(C)c2ccc(OC(=O)c3ccccc3OC)cc12 | -16.6
13 | O=C(NCCCn1ccnc1)c1ccc(Cl)s1 | 5.72
14 | O=C(CN(C(=O)CNC(=O)c1cccs1)c1ccc(F)cc1)NC1CCCCC1 | -4
15 | N/C(=N\S(=O)(=O)c1cc(C(F)(F)F)cc(C(F)(F)F)c1)c1ccc(Cl)cc1 | -8.21
16 | CC(=O)Nc1ccc(S(=O)(=O)NCCC(=O)OCC(=O)c2ccccc2)cc1 | 1.66
17 | O/N=C/C1=C(Cl)c2ccccc2CC1 | -4.9
18 | O=C(CSc1ccc2nnc(-c3cccnc3)n2n1)N1CCOCC1 | -25
19 | COc1ccc(S(=O)(=O)Nc2noc3ccccc23)cc1 | 22.6

Row | SMILES | hERG current change (%, negative = inhibition) at 10uM [%]
20 | NNC(=O)c1csc(Cc2c(Cl)sc3ccc(Cl)cc23)n1 | 9.6
21 | COc1cccc(/C=N/Nc2ncnc3c2[nH]c2ccc(C)cc23)c1OC | 17.8
22 | Cc1ccc2[nH]cc(C(=O)CN3CCN(c4ccccc4F)CC3)c2c1 | -2.17
23 | Cc1nn(Cc2ccccc2)c(C)c1CNC(=O)c1ccc(F)c(S(=O)(=O)N2CCOCC2)c1 | -28.8
24 | CCN(CC)CCNc1ncnc2c1sc1nc(N3CCCC3)c3c(c12)CC(C)(C)OC3 | -65.5
25 | CCOCCCNC(=O)N[C@@H](C)C(=O)OC | -5.77
26 | CC(=O)c1cnc(SCc2ccc(Cl)cc2)nc1C | -0.123
27 | COc1cccc(/C=N/NC(=O)Cn2cnc3c2c(=O)n(C)c(=O)n3C)c1 | 6.77
28 | CC(C)Nc1nc2nonc2nc1Nc1ccccc1 | 6.84
29 | Cc1ccc(S(=O)(=O)/N=C(/Nc2c(C)n(C)n(-c3ccccc3)c2=O)c2ccccc2)cc1 | -13
30 | CC(C)OCCCNC(=O)C(C)Oc1ccccc1 (stereo not drawn) | -0.266
31 | Cc1ccn2cc(CNC(=O)c3ccc(Br)o3)nc2c1 | -38.6
32 | COc1cc(-c2[nH]ncc2CN2CCc3sccc3C2)cc(OC)c1OC | -6.38
33 | O=C(CN1CCN(c2ccc(F)cc2)CC1)c1ccc2c(c1)OCO2 | -27.1
34 | CSc1c(-c2ccccc2)nc2ccc(Cl)cc2c1C(=O)O | -0.26
35 | CCN(Cc1ccncc1)C(=O)Cc1cccs1 | -4.02
36 | Cc1cc(C)cc(NC(=O)C(c2ccccc2)N2CCCC2)c1 (stereo not drawn) | 12.5
37 | CC(=O)c1ccc(NC(=O)CSc2nnc(-c3ccco3)o2)cc1 | -73.9
38 | COc1ccc(/C(C)=N/NC(=O)CNC(=O)c2cccs2)cc1OC | 4.52

Row | SMILES | hERG current change (%, negative = inhibition) at 10uM [%]
39 | Cc1c(Cl)cccc1NC(=S)N(CCCN1CCOCC1)Cc1ccco1 | -43.9
40 | O=C(CNC(=O)c1ccccc1F)NC1=NCCS1 | 35.9
41 | CCS(=O)(=O)c1ccc2c(c1)NC(=O)C(CCO)O2 (stereo not drawn) | 3.3
42 | CCCCNC(=O)C1CCCN1S(=O)(=O)c1cccc2nsnc12 (stereo not drawn) | -2.84
43 | CCNC(=O)CCSc1nnc(-c2ccco2)o1 | 5.62
44 | COc1ccc(CO[C@@H]2O[C@H](CO)[C@@H](O)[C@H](O)[C@H]2NC(C)=O)cc1OC | 20.3
45 | CCCCCCSc1nc2c(c(=O)[nH]c(=O)n2C)n1C | 11.8
46 | CC(C)N(C(=S)Nc1cccnc1)c1ccccc1 | 3.64
47 | C=CCn1c(SCC(=O)Nc2ccc(O)cc2)nc2sc(CC)cc2c1=O | -62.5
48 | COc1cc2ccccc2cc1C(=O)Nc1ccc2oc(=O)ccc2c1 | 9.1
49 | CC12CCC(C(=O)N(CC(O)CN3CCCCCC3)C1=O)C2(C)C.Cl (stereo not drawn) | 3.37
50 | CCOC(=O)C1=C(C)OC(N)=C(C#N)C1c1cc(Cl)c(OCC(N)=O)c(OC)c1 (stereo not drawn) | -5.87
51 | Cc1ccc(S(=O)(=O)Nc2nc3cc(C)c(C)cc3[nH]2)cc1 | 8.98
52 | CCC(OC(=O)CC1Sc2ccccc2NC1=O)C(=O)NCC1CCCO1 (stereo not drawn) | -7.94
53 | CCc1nnc(NC(=O)CC23CC4CC(CC(Br)(C4)C2)C3)s1 | -1.4
54 | OCCN(Cc1ccccc1)CC1CCCCC1 | -2.28
55 | CCC1(CC)NC(=O)N(CC(=O)OCC(=O)Nc2cc(C)ccc2C)C1=O | 12.9
56 | CCN(Cc1ccccc1)c1ccc(/C=N/NC(=O)c2cccc(S(=O)(=O)N3CCOCC3)c2)cc1 | -5.49
57 | CC(=O)Oc1ccc(/C=C2/C(=O)N(c3ccccc3)N=C2C)cc1 | 4.53
